167 variants from the RNAGym collection of RNA variant scans (doi:10.7554/elife.90254) can be followed below.

B1: LINE1-mini (parent)
chain: GGCAGAGCUCAACACAGCGUGGCAAAGUGGCUGUGGCUAGACUGCC

Read counts are not given, so values of variants with three or more changes are uncertain.

This data set covers variants of B1. Briefly: self-cleavage, relative activity (ratio to wild type); higher = more cleavage; in vitro, sequencing; the parent is a self-cleaving ribozyme.
G5C G22C A26G G35C: the self-cleavage stood at 0. As for G5C A14C A16G C23U, the self-cleavage stood at 0.01. On to G5C C13G G36A, for which the self-cleavage turned out to be 0. For the variant G5C C13A G27C A41C, the self-cleavage worked out at 0.1. For the variant G5C A11C U32G, the self-cleavage was 0.01. With G5C C13U A25U, the self-cleavage is 0.02. Regarding G5C A16C G33U, the self-cleavage was 0.05. The result for G5C G19A U28A reads 0.04. G5C G7A C31U: the self-cleavage was found to be 0.06.

For G5C G7A U9C G17C C42G, the self-cleavage amounted to 0.02.

For the variant G5C A14U G27A, the self-cleavage is 0.04. Regarding G5C G30A U38G, the self-cleavage turned out to be 0.26. As for G5C G7C A16C G19A C23U G33U U34G G36C, the self-cleavage is 0.12.

For the variant G5C C23G C31A G35C, the self-cleavage is 0.01. As to G5C G30A C31G G40A, the self-cleavage was 0.11. Take G5C C10U G35A: the self-cleavage worked out at 0.04. As to G5C U9A C13U A26C C31G, the self-cleavage was 0.11. Take G5C A14C A24C G30C C31A C37A: the self-cleavage was determined as 0.08.

G5C G17A C23A A41G: the self-cleavage is 0.01. For G5C C10A G27U G30U U38G, the self-cleavage was 0.01.

Take G5C C18A U28C: the self-cleavage came to 0.04. To G5C G29C G30A belongs 0.06; to G5C C8U C15U G19A A41U, 0.26. Regarding G5C A16C C46A, the self-cleavage was 0.02. To G5C G21A C31G G36U belongs 0.02; to G5C G7U G30A G33A C45G, 0.04; to G5C C15G U32A, 0.03. Turning to G5C C13U C23A, the self-cleavage is 0.09. For the variant G5C C15G U20G C31A G33A U38C, the self-cleavage is 0.01. G5C G21C U32C G35U: the self-cleavage stood at 0.23. For G5C C13G G19A C23U A25G U43C, the self-cleavage came to 0.01. To G5C C18U G21C G22A G30A G33A belongs 0.15; to G5C C15U A24U, 0.06. The result for G5C C15A G21U C31G C45G reads 0.01; that for G5C U9G A16C G21U A39G, 0.02; that for G5C U9A C15A G17A G21U, 0.05. In the case of G5C C23G A24U C31U A39C, the self-cleavage stood at 0.04. The result for G5C G29U G33A G35A reads 0.03. Consider G5C C10G G21C, for which the self-cleavage turned out to be 0.01. G5C C8U C10A U32A: the self-cleavage amounted to 0.02. On to G5C C18A A26U G29U G33U G36A, for which the self-cleavage stood at 0.03. The result for G5C C10G G30A G35C reads 0.02; that for G5C A11U A12C, 0.03. Turning to G5C A41C C46U, the self-cleavage was 0.22. For the variant G5C C15G C18A C45A, the self-cleavage worked out at 0.02. Take G5C G30A G33C: the self-cleavage was 0.02. Consider G5C C10U A41U, for which the self-cleavage worked out at 0.04. With G5C A16G C18A A24G, the self-cleavage was determined as 0.01. Regarding G5C U9C G40C, the self-cleavage came to 0.04. To G5C C10U G21U A26C G35U C37A belongs 0.03; to G5C C18G C42U, 0.6; to G5C A12U G22A G30C C46U, 0.04. Consider G5C C10A G29A, for which the self-cleavage was determined as 0.03.

For G5C C37G A39G, the self-cleavage was determined as 0.03. For G5C A24U G29U, the self-cleavage is 0.15. For G5C A25C G33U G36C, the self-cleavage was 0.02. For G5C A11G U32A G35A C37U U38A, the self-cleavage was found to be 0.01.

As for G5C C10U A11U C15U C46A, the self-cleavage amounted to 0.02. As to G5C G21U A24U, the self-cleavage came to 0.09. The result for G5C G17U C18A A24G U32A C46U reads 0.28; that for G5C C15A G44A, 0.02. To G5C G19C C42A belongs 0.02; to G5C G7A A11C A24U U32G A41U, 0.01; to G5C A14G G17U C45A, 0.03. Regarding G5C C10A G17C G35A, the self-cleavage is 0.02. For the variant G5C C10G G22A A39U, the self-cleavage worked out at 0.04. Take G5C G22C C31U U32C G44C: the self-cleavage was found to be 0.05. Turning to G5C U9A A24C G30U, the self-cleavage was 0.05. For the variant G5C C18U U43A, the self-cleavage worked out at 0.02. To G5C G21U G29U A41C belongs 0.05; to G5C C10U C13G A16C G44A, 0.04; to G5C G19A G40U, 0.03. To G5C G21A U28C C31G U32G belongs 0.09.

As for G5C C15G C42U, the self-cleavage stood at 0.03.

G5C A26C G30C: the self-cleavage is 0.08. Turning to G5C G7C A14C U34G A41G C42U C45U, the self-cleavage was found to be 0.01. The result for G5C C8U U38C A41G reads 0.18. To G5C C13A G21U G36U U38G belongs 0.02; to G5C C10U C15A G19A A41C C45U, 0.01; to G5C C13U G22C, 0.04. To G5C C15U G17C A24U G36C U43C C46G belongs 0.02; to G5C G7U U9C U34G, 0.05; to G5C G7A G19A U34G, 0.06. In the case of G5C C8U G27A G40C C42A, the self-cleavage turned out to be 0.01. G5C G27A C37G: the self-cleavage was 0.14. For the variant G5C G22C A41C, the self-cleavage is 0.29. Take G5C G27A G36U A41C C46A: the self-cleavage was 0.08.

With G5C A16U G29A G35U C45U, the self-cleavage was found to be 0. Take G5C G19U G30C G33U G40C: the self-cleavage is 0.01. The result for G5C C15G G30C reads 0.02. To G5C C13A C15A G30C belongs 0.07; to G5C G29U C37G, 0.02. As for G5C C10G G36U, the self-cleavage is 0.03.

In the case of G5C A25G G27C G36U, the self-cleavage worked out at 0.07.

On to G5C G7C A24U C46A, for which the self-cleavage came out at 0.02. Turning to G5C A14G U20A G33U C42A, the self-cleavage came out at 0.21. For the variant G5C A16U C37U C45G, the self-cleavage was determined as 0.04. For G5C C31G U32C, the self-cleavage is 0. Regarding G5C A11C C15A A16U G27U C31U G35U U43A, the self-cleavage is 0. To G5C A14U U32A belongs 0.05; to G5C A11G C15U A26G C46U, 0.02; to G5C U9A G44A, 0.02. Take G5C G21A G22C A26C: the self-cleavage is 0.03. On to G5C G19U G35C C42G, for which the self-cleavage was determined as 0.09. The result for G5C G19C G29C G33C reads 0.01. On to G5C G7U A39U, for which the self-cleavage was determined as 0.35. On to G5C C15A A16G U28G U32C, for which the self-cleavage stood at 0.01. As for G5C G21C U43A, the self-cleavage amounted to 0.17. The result for G5C C10G A14C C15A reads 0.04; that for G5C G36C U43C, 0.03. On to G5C C18A G22C U32A, for which the self-cleavage was found to be 0.03. For the variant G5C G21A G22C C31U G33U, the self-cleavage was 0.02. G5C C18A C31G: the self-cleavage was determined as 0.03. As for G5C U9C C15A, the self-cleavage was found to be 0.04. With G5C C18U C45U, the self-cleavage was determined as 0.09. The result for G5C U9A C45G reads 0.26. As for G5C G22C G40C, the self-cleavage came to 0. For the variant G5C A14C C15A U20G C45A, the self-cleavage came out at 0.02. G5C A11G G27U: the self-cleavage was 0.03.

G5C A14U A39U: the self-cleavage turned out to be 0.07.

With G5C A39C C45U C46A, the self-cleavage amounted to 0. On to G5C A16U U32G U34A C45U, for which the self-cleavage came out at 0.01. To G5C G21A C23A G30C C45U belongs 0.03.

Consider G5C G7A A12C C23G C45U, for which the self-cleavage was found to be 0.02. To G5C C23U G27C C31U belongs 0.01. On to G5C C42U C45U, for which the self-cleavage was found to be 0.07. Take G5C U9C C46A: the self-cleavage is 0.05. G5C C15A C31G: the self-cleavage turned out to be 0.04. G5C C10G G33U C37G: the self-cleavage came to 0.02.

With G5C A16C G21C G40U, the self-cleavage is 0.04.

As to G5C A25U G27U C46G, the self-cleavage amounted to 0.02. To G5C C23U C45G belongs 0.04. Consider G5C C13U A14C, for which the self-cleavage was determined as 0.02. As to G5C C18G C45G, the self-cleavage was 0.03.

Take G5C U9C A12C U38G G40U C45U: the self-cleavage is 0.03. Turning to G5C G21C A24G G27U, the self-cleavage is 0.04. Regarding G5C G44U C46A, the self-cleavage was 0.14.

In the case of G5C C31G A39G, the self-cleavage worked out at 0.01. On to G5C A12C G22A A26G G30U, for which the self-cleavage turned out to be 0.01. To G5C C8A U9C belongs 0.93; to G5C G29U C46U, 0.05.

In the case of G5C G22A G27A G29U U34A, the self-cleavage came out at 0.02. In the case of G5C A16G G27A A39C G40U, the self-cleavage is 0.02. With G5C A11C C42U, the self-cleavage was found to be 0.05.

As to G5C C8U G22U C45A, the self-cleavage came out at 0.1. For the variant G5C A11U C46A, the self-cleavage came out at 0. G5C A11G C13U: the self-cleavage came out at 0.02. Regarding G5C A12U U28A U38A, the self-cleavage stood at 0. With G5C A39G G44C, the self-cleavage turned out to be 0.11. As for G5C G7A G30U C31U U32A G35A A41G, the self-cleavage worked out at 0.02. For the variant G5C C8A C13U G29A G40C, the self-cleavage came to 0.16.

Regarding G5C C10U C18A U20C A39C, the self-cleavage was 0.09.

For G5C C18A A24C G33A U34G C37G, the self-cleavage came out at 0.05. Consider G5C A12U U20A U38G, for which the self-cleavage turned out to be 0.01. Turning to G5C G30U U43C, the self-cleavage was 0.15. For the variant G5C G29C C37A U38A, the self-cleavage amounted to 0.01.

As for G5C G7C G44A, the self-cleavage stood at 0.04. Take G5C C31U C46U: the self-cleavage was determined as 0.03.

With G5C G30A C42A G44U, the self-cleavage turned out to be 0.09.

Turning to G5C U9C G30A C37U, the self-cleavage is 0.04. In the case of G5C A14C C15G C23G G27U, the self-cleavage was found to be 0.

On to G5C G21U G44A, for which the self-cleavage is 0.03. On to G5C C18A U43G G44A, for which the self-cleavage amounted to 0.03. As for G5C G7U A41G, the self-cleavage stood at 0.12. As for G5C G7U C10A A11U C18A U20A, the self-cleavage came to 0.02. As for G5C G33U U34A, the self-cleavage worked out at 0.03.

On to G5C G29U G33A, for which the self-cleavage came out at 0.14.
